Experimental data: the supplement of paper PMC11125491
± gives the standard deviation of the averaged measurements. Growth of baker's yeast expressing single-residue variants of Pneumocystis jirovecii dihydrofolate reductase in 8.8 or 44 µM methotrexate (about 75% and 90% inhibition of the wild type). Selection coefficient per generation; 0 = like wild type, above 0 = less sensitive, below 0 = more sensitive or loss of function. No active / inactive call per row; the paper calls resistant above 0.220 (8.8 µM) or 0.243 (44 µM) together with a significance test. At 44 µM about 15% of codons end with one read or none, so the lowest values are floors (replicate rank correlation 0.74; 0.94 at 8.8 µM).

B1: UniProt A0EPZ9; numbered along this chain (parent)
chain: MDWQKSLTLIVALTLSRGIGLKNDLPWKLKSDMMFFSRVTSGLLVTRSTGQMNVVLMGRKTWESLPAHSRPLKNRINVVISRQEVLDLGGGAYHARSLDDALALLSQIYDSTSKIQLNRVFVIGGGELCKAAMEHSRLNRIIATVIHNEVDCDVFFPIDFRSSQSCLPWRKQDHSVLEAWVGSKVPQGKINENGFIYEFEMWIRDI

Variants of: B1
Assay: selection coefficient against synonymous wild-type codons (log2 per generation); higher = faster growth than wild type
Conditions: with Saccharomyces cerevisiae carrying the variant on a plasmid
Procedure: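 Pooled growth of yeast carrying single-residue variants of P. jirovecii dihydrofolate reductase (own DFR1 gene intact), two passages at 30 °C, three cultures, sequenced before and after. Codons with under 15 starting reads are left out; codons of one change are averaged.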

Row | Variant | selection coefficient against synonymous wild-type codons (log2) (methotrexate 8.8 µM) | selection coefficient against synonymous wild-type codons (log2) (methotrexate 44 µM)
1 | MDWQKSLTLIVALTLSRGIGLKNDLPWKLKSDMMFFSRVTSGLLVTRSTGQMNVVLMGRKTWESLPAHSRPLKNRINVVISRQEVLDLGGGAYHARSLDDALALLSQIYDSTSKIQLNRVFVIGGGELCKAAMEHSRLNRIIATVIHNEVDCDVFHPIDFRSSQSCLPWRKQDHSVLEAWVGSKVPQGKINENGFIYEFEMWIRDI [F156H] | 0.519 ± 0.049 | 0.596 ± 0.038
2 | MDWQKSLTLIVALTLSRGIGLKNDLPWKLKSDMMFFSRVTSGLLVTRSTGQMNVVLMGRKTWESLPAHSRPLKNRINVVISRQEVLDLGGGAYHARSLDDALALLSQIYDSTSKIQLNRVFVIGGGELCKAAMEHSRLNRIIATVIHNEVDCDVFIPIDFRSSQSCLPWRKQDHSVLEAWVGSKVPQGKINENGFIYEFEMWIRDI [F156I] | 0.205 ± 0.053 | 0.159 ± 0.054
3 | MDWQKSLTLIVALTLSRGIGLKNDLPWKLKSDMMFFSRVTSGLLVTRSTGQMNVVLMGRKTWESLPAHSRPLKNRINVVISRQEVLDLGGGAYHARSLDDALALLSQIYDSTSKIQLNRVFVIGGGELCKAAMEHSRLNRIIATVIHNEVDCDVFKPIDFRSSQSCLPWRKQDHSVLEAWVGSKVPQGKINENGFIYEFEMWIRDI [F156K] | -0.255 ± 0.057 | -0.181 ± 0.096
4 | MDWQKSLTLIVALTLSRGIGLKNDLPWKLKSDMMFFSRVTSGLLVTRSTGQMNVVLMGRKTWESLPAHSRPLKNRINVVISRQEVLDLGGGAYHARSLDDALALLSQIYDSTSKIQLNRVFVIGGGELCKAAMEHSRLNRIIATVIHNEVDCDVFLPIDFRSSQSCLPWRKQDHSVLEAWVGSKVPQGKINENGFIYEFEMWIRDI [F156L] | 0.431 ± 0.03 | 0.466 ± 0.035
5 | MDWQKSLTLIVALTLSRGIGLKNDLPWKLKSDMMFFSRVTSGLLVTRSTGQMNVVLMGRKTWESLPAHSRPLKNRINVVISRQEVLDLGGGAYHARSLDDALALLSQIYDSTSKIQLNRVFVIGGGELCKAAMEHSRLNRIIATVIHNEVDCDVFMPIDFRSSQSCLPWRKQDHSVLEAWVGSKVPQGKINENGFIYEFEMWIRDI [F156M] | 0.283 ± 0.032 | 0.264 ± 0.015
6 | MDWQKSLTLIVALTLSRGIGLKNDLPWKLKSDMMFFSRVTSGLLVTRSTGQMNVVLMGRKTWESLPAHSRPLKNRINVVISRQEVLDLGGGAYHARSLDDALALLSQIYDSTSKIQLNRVFVIGGGELCKAAMEHSRLNRIIATVIHNEVDCDVFNPIDFRSSQSCLPWRKQDHSVLEAWVGSKVPQGKINENGFIYEFEMWIRDI [F156N] | 0.641 ± 0.046 | 0.831 ± 0.043
7 | MDWQKSLTLIVALTLSRGIGLKNDLPWKLKSDMMFFSRVTSGLLVTRSTGQMNVVLMGRKTWESLPAHSRPLKNRINVVISRQEVLDLGGGAYHARSLDDALALLSQIYDSTSKIQLNRVFVIGGGELCKAAMEHSRLNRIIATVIHNEVDCDVFPPIDFRSSQSCLPWRKQDHSVLEAWVGSKVPQGKINENGFIYEFEMWIRDI [F156P] | -0.155 ± 0.082 | -0.0508 ± 0.12
8 | MDWQKSLTLIVALTLSRGIGLKNDLPWKLKSDMMFFSRVTSGLLVTRSTGQMNVVLMGRKTWESLPAHSRPLKNRINVVISRQEVLDLGGGAYHARSLDDALALLSQIYDSTSKIQLNRVFVIGGGELCKAAMEHSRLNRIIATVIHNEVDCDVFQPIDFRSSQSCLPWRKQDHSVLEAWVGSKVPQGKINENGFIYEFEMWIRDI [F156Q] | 0.578 ± 0.043 | 0.71 ± 0.036
